Experimental data from PubChem BioAssay AID1508624 (National Center for Advancing Translational Sciences (NCATS), 2021).
In all, about 48,000 compounds went through this assay and about 120 (0.25%) were called active. Inconclusive results (about 4%) are left out. Calls come from the whole dose curve; as a rule, active = well fitted activation curve with a large enough effect; inconclusive = small, poorly fitted or top-dose-only effect, or another doubt; inactive = no such curve, though single readings can be large or run the other way. The list shows a part of the results.

Experiment: Primary qHTS for Identification of Small Molecule Activators of Huntingtin-Antisense Promoter Activity; note: nearly all actives have a fitted effect of over 55% in size
Conditions: HEK293 HTT-AS promoter firefly luciferase reporter, 24 h; series mostly up to 57.5 µM; activity change, positive = activation: at the top concentration
How it was run: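 HEK293 luciferase promoter-reporter cells (2,500/well) plated 24 h, then compounds added at up to 57.5 uM final for 24 h at 37 °C. Firefly luminescence by Dual-Glo, normalized to vehicle (0%) and zero RLU (-100%).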

Activity change, positive = activation, inactive:
O=C(NCc1ccccc1Cl)c1ccc(NC(=O)N2CCSc3ncccc32)cc1 -14.2%, COc1ccc(C)cc1NC(=O)Cn1c(=O)oc2cc(S(=O)(=O)NCc3ccccc3)ccc21 -34.6%, COc1ccc2c(c1)CC(C(=O)NCCN1CCN(c3cccc(C)c3C)CC1)CO2 (stereo unspecified) -20.4%, CC(C)CCNC(=O)Nc1cc(C(=O)NCc2cccc(F)c2)ccc1N1CCCC1 -5.19%, COc1ccc2c(c1)c1c(c(=O)n(Cc3ccccc3)c(=O)n1CC(=O)Nc1ccc(C)cc1C)n2C -4.48%, O=C(Nc1nnc(S(=O)(=O)N2CCCCCC2)s1)c1ccccc1Br -12.1%, c1ccc(CCNc2nc(-c3ccccc3)cs2)cc1 17.3%, Cc1ccc(NC(=O)C2CCCN(S(=O)(=O)c3c(C)n[nH]c3C)C2)cc1C (stereo unspecified) -13.9%, CSc1cccc(NC(=O)C2CCN(S(=O)(=O)c3ccc4[nH]c5c(c4c3)CCCCC5)CC2)c1 -25.2%, CCOC(=O)c1ccc(CN(Cc2ccc(C)cc2)S(=O)(=O)c2ccc(NC(C)=O)cc2)cc1 -17.6%, COCCCNC(=O)CN1C(=O)CSc2ccc(S(=O)(=O)N3CCOCC3)cc21 -15.4%, CCCS(=O)(=O)N1CC(=O)N(c2ccc(Cl)cc2)C(C)(C(=O)NC2CCCC2)C1 (stereo unspecified) -1.38%, CCn1cc2nc(SCc3ccc(F)cc3)n(Cc3ccc(Cl)cc3)c(=O)c2n1 8.91%, CC(=O)Nc1ccc(Nc2nnc(-c3ccc(C)c(S(N)(=O)=O)c3)c3ccccc23)cc1 -5.05%, Cc1nc(SCc2ccc(Cl)cc2)c(C#N)c(C)c1Cl -8.24%, CCOc1cc2[nH]c(=O)n(CCCC(=O)N3CCN(c4cccc(Cl)c4)CC3)c(=O)c2cc1OCC -33.1%, CC(C)CC(=O)N[C@H](C(=O)N[C@H](C(=O)N[C@@H](CC(C)C)[C@@H](O)CC(=O)N[C@@H](C)C(=O)N[C@@H](CC(C)C)[C@@H](O)CC(=O)O)C(C)C)C(C)C -5.25%, COc1ccc(OC)c(NC(=O)N2CCC(CN3CCCCC3)CC2)c1 -6.63%, COc1ccc(OC)c(CNc2sc3c(c2C(=O)Nc2cc(OC)ccc2OC)CCCC3)c1 -25.3%, CC(C)Cn1cc(C(=O)N2CCN(c3cccc(Cl)c3)CC2)c2c3ccccc3n(C)c2c1=O -35.2%, CC(=O)N1CCCc2cc(S(=O)(=O)N3CCCC(C(=O)Nc4cccc(Cl)c4C)C3)ccc21 (stereo unspecified) -31.4%, CCOC(=O)c1cnc2ccc(OCC)cc2c1Nc1cc(Cl)c(OC)cc1OC -4.36% [at 11.5 µM, percent change from vehicle, -100% = no light], Cc1ccc(C)c(OC(=O)CSc2nnc(-c3ccc4c(c3)OCO4)o2)c1 -17.2%, CCCCc1ccc(NC(=O)c2ccc3c(c2)CCN3S(=O)(=O)c2ccccc2)cc1 2.35%, CCOc1cc(C(=O)Nc2ccc(S(=O)(=O)Nc3cc(OC)nc(OC)n3)cc2)cc(OCC)c1OCC -5.8%, COC(=O)c1ccc(Cn2c(SCC(=O)N(C)c3ccccc3)nc3ccccc32)cc1 -15.2%, CCC1=C(c2ccc(C)cc2)S(=O)(=O)N=C1N1CCC(C(=O)NCc2ccccc2Cl)CC1 -35.3%, CCCN(CCC)CCNC(=O)C1CCCN(S(=O)(=O)c2cccc3nsnc23)C1 (stereo unspecified) 2.21%, CCCCCOC(=O)c1ccc(OC(=O)c2sc3ncn(Cc4cccc(F)c4)c(=O)c3c2C)cc1 -1.48%, Cc1ccc(C)c(N2CCN(CCCNC(=O)c3nnc(Cc4ccc(F)cc4Cl)o3)CC2)c1 -38.2%, Nc1ccn([C@@H]2O[C@H](CO)[C@H](O)C2(F)F)c(=O)n1 -22.7%, CCOCCCNC(=O)C(c1ccc(Cl)cc1)N(Cc1cccs1)C(=O)c1ccc(NC(C)=O)cc1 (stereo unspecified) -11.6%, CCC(=O)N1CCc2cc(Br)cc(S(=O)(=O)CCC(=O)N(CC)Cc3ccccc3)c21 -0.226%, CC(C)(Oc1ccc(Cl)cc1)C(=O)Nc1nc2ccc(S(C)(=O)=O)cc2s1 3.73% [at 11.5 µM, percent change from vehicle, -100% = no light], CN(C)c1ccc(C(CNC(=O)c2c(F)cccc2Cl)N2CCOCC2)cc1 (stereo unspecified) -6.19%, COc1ccc(Cl)cc1NC(=O)NCC1CCN(Cc2ccccc2F)CC1 -10.4%, CC(=O)N1CCc2cc(CNS(=O)(=O)c3ccc(Cl)s3)ccc21 6.44%, COc1ccc(-n2c(=O)c3c4c(sc3n3c(SCCC(C)C)nnc23)COC(C(C)C)C4)cc1 (stereo unspecified) 2.03%, COc1cc(OC)cc(C(=O)Nc2ccc3oc(-c4cccc5c(Br)cccc45)nc3c2)c1 -5.64%, CN1C(=O)C2(SCC(=O)N2c2ccc(F)cc2)c2ccccc21 (stereo unspecified) 3.01%, CCOc1ccc(OCC)c(NS(=O)(=O)c2cc(-c3onc(C)c3C)ccc2OC)c1 2.02%, COc1ccc(CCC(=O)NCCc2csc(-c3ccc(Cl)cc3)n2)cc1 -23.5%, COCCNC(=O)CSc1nc(-c2ccccc2C)nc2c1c(=O)n(C)c(=O)n2C 8.31%, NS(=O)(=O)c1ccc2nc(NC(=O)COc3ccccc3)sc2c1 -4.52%, Cc1ccc(NC(=O)c2nc(S(C)(=O)=O)ncc2N(Cc2ccco2)Cc2ccco2)cc1C -27.4%, CCCN(CCC)C(=O)c1cc2c(=O)n3cccc(C)c3nc2n1C -7.64%, Cc1ccc2cccc(NC(=O)c3ccc(-c4cccc(Cl)c4)o3)c2n1 7.55%, Cc1ccc(NC(=O)Cn2c(=O)oc3cc(S(=O)(=O)N4CCCCCC4)ccc32)cc1Cl -42.2%, CCOc1ccc(Nc2c(S(=O)(=O)c3ccccc3)cnc3ccccc23)cc1 -24.6%, CC(C)C(NS(=O)(=O)c1ccc2c(c1)oc(=O)n2C)C(=O)NCCc1ccc(Cl)cc1 (stereo unspecified) 20.1%, Cc1ccc(-c2nnc(Nc3ccc(S(N)(=O)=O)cc3)c3ccccc23)cc1S(=O)(=O)N1CCCCC1 -25.5%, Cc1ccc(C)c(Cn2c(=O)cc(C)c3c(C)nn(C)c32)c1 -26.9%, CC1(C)CCC[C@@]2(C)[C@@H]1CC[C@@]1(C)OC(=O)C[C@H]21 -5.6%, CCn1c(C)c(C)c2cc(C(=O)NCc3cccc(C)c3)ccc21 -6.58%, COc1ccc(NC(=O)/C=C\C(=O)N(c2ccc(C(C)C)cc2)C(C(=O)NCc2ccco2)c2ccc(F)cc2)cc1 (stereo unspecified) -44.8%, O=C(c1ccccc1)N(Cc1ccco1)Cc1cccs1 -24%
